Source: article PMC9911399, “Two distinct binding modes provide the RNA-binding protein RbFox with extraordinary sequence specificity”
Positions count from the first letter of the chain named. This is one part of the list.

T1: RBFOX1 RRM RbFoxmut (Fox-RRM*) (Homo sapiens, UniProt Q9NWB1 109-208, R118D;E147R;N151S;E152T)
T1 sequence: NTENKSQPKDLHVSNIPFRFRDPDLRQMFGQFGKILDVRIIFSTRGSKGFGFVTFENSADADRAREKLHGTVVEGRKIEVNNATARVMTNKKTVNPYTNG

B1: UUCAGGA (DNA:RNA)
RNA: GGGAGACCGGAAUUCAGAUUGUCCUUCAGGAUUAAAUCCCGUCGUAGCCACCA
DNA 1: CAATCTGAATTCCGGTCTCCC
DNA 2: TGGTGGCTACGACGGGATT
B2: CAUUACG (DNA:RNA)
RNA: GGGAGACCGGAAUUCAGAUUGUCCCAUUACGUUAAAUCCCGUCGUAGCCACCA
DNA 1: CAATCTGAATTCCGGTCTCCC
DNA 2: TGGTGGCTACGACGGGATT
B3: UACCCCU (DNA:RNA)
RNA: B2 RNA with C25U, U27C, U28C, A29C, G31U
DNA 1: CAATCTGAATTCCGGTCTCCC
DNA 2: TGGTGGCTACGACGGGATT
B4: GAUGAGC (DNA:RNA)
RNA: B2 RNA with C25G, U28G, C30G, G31C
DNA 1: CAATCTGAATTCCGGTCTCCC
DNA 2: TGGTGGCTACGACGGGATT
B5: AUAAUGG (DNA:RNA)
RNA: B1 RNA with U25A, C27A, G29U, A31G
DNA 1: CAATCTGAATTCCGGTCTCCC
DNA 2: TGGTGGCTACGACGGGATT
B6: AUUCGGA (DNA:RNA)
RNA: B1 RNA with U25A, C27U, A28C
DNA 1: CAATCTGAATTCCGGTCTCCC
DNA 2: TGGTGGCTACGACGGGATT
B7: AGUCGCG (DNA:RNA)
RNA: B2 RNA with C25A, A26G, U28C, A29G
DNA 1: CAATCTGAATTCCGGTCTCCC
DNA 2: TGGTGGCTACGACGGGATT
B8: ACCUGAC (DNA:RNA)
RNA: B1 RNA with U25A, U26C, A28U, G30A, A31C
DNA 1: CAATCTGAATTCCGGTCTCCC
DNA 2: TGGTGGCTACGACGGGATT
B9: CCGGAAC (DNA:RNA)
RNA: B2 RNA with A26C, U27G, U28G, C30A, G31C
DNA 1: CAATCTGAATTCCGGTCTCCC
DNA 2: TGGTGGCTACGACGGGATT
B10: GAUGAAC (DNA:RNA)
RNA: B2 RNA with C25G, U28G, C30A, G31C
DNA 1: CAATCTGAATTCCGGTCTCCC
DNA 2: TGGTGGCTACGACGGGATT
B11: GGGACCC (DNA:RNA)
RNA: B2 RNA with C25G, A26G, U27G, U28A, A29C, G31C
DNA 1: CAATCTGAATTCCGGTCTCCC
DNA 2: TGGTGGCTACGACGGGATT
B12: UAUAGCG (DNA:RNA)
RNA: B2 RNA with C25U, U28A, A29G
DNA 1: CAATCTGAATTCCGGTCTCCC
DNA 2: TGGTGGCTACGACGGGATT
B13: AUGGAAG (DNA:RNA)
RNA: B2 RNA with C25A, A26U, U27G, U28G, C30A
DNA 1: CAATCTGAATTCCGGTCTCCC
DNA 2: TGGTGGCTACGACGGGATT
B14: AACGUUU (DNA:RNA)
RNA: B2 RNA with C25A, U27C, U28G, A29U, C30U, G31U
DNA 1: CAATCTGAATTCCGGTCTCCC
DNA 2: TGGTGGCTACGACGGGATT
B15: UGGCUCU (DNA:RNA)
RNA: B2 RNA with C25U, A26G, U27G, U28C, A29U, G31U
DNA 1: CAATCTGAATTCCGGTCTCCC
DNA 2: TGGTGGCTACGACGGGATT
B16: UCCCACA (DNA:RNA)
RNA: B1 RNA with U26C, A28C, G29A, G30C
DNA 1: CAATCTGAATTCCGGTCTCCC
DNA 2: TGGTGGCTACGACGGGATT
B17: GGCAUGC (DNA:RNA)
RNA: B1 RNA with U25G, U26G, G29U, A31C
DNA 1: CAATCTGAATTCCGGTCTCCC
DNA 2: TGGTGGCTACGACGGGATT
B18: UGCCAGC (DNA:RNA)
RNA: B1 RNA with U26G, A28C, G29A, A31C
DNA 1: CAATCTGAATTCCGGTCTCCC
DNA 2: TGGTGGCTACGACGGGATT
B19: AAAGCCU (DNA:RNA)
RNA: B2 RNA with C25A, U27A, U28G, A29C, G31U
DNA 1: CAATCTGAATTCCGGTCTCCC
DNA 2: TGGTGGCTACGACGGGATT
B20: AACUUAU (DNA:RNA)
RNA: B2 RNA with C25A, U27C, A29U, C30A, G31U
DNA 1: CAATCTGAATTCCGGTCTCCC
DNA 2: TGGTGGCTACGACGGGATT

Molecular target: T1, RBFOX1 RRM RbFoxmut (Fox-RRM*)
Test: EMSA; HiTS-Eq, 1 nM pool, 10 min; buffer printed only for the single-RNA assays: 10 mM Tris pH 7.5, 150 mM NaCl, 3.4 mM EDTA, 0.001% NP-40, 30 C
Details: tags: His6 N-terminal (pET28a); label: 5' 32P
Procedure, shortened: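 These values rest on relative association constants, computed from read-count changes of each RNA species versus the control reaction and normalised to the cognate motif. Reads came from free RNA recovered by 8% native PAGE after purified RbFox RRM (wild type or mutant) at increasing concentrations was equilibrated for 10 min in 50 µL with 1 nM of a 5′-radiolabelled pool with 7 randomized nucleotides and DNA-annealed flanks.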

Row | Binder | binding signal
1 | B1 | 0.0766 KA relative to UGCAUGU
2 | B2 | 0.144 KA relative to UGCAUGU
3 | B3 | 0.0779 KA relative to UGCAUGU
4 | B4 | 0.1 KA relative to UGCAUGU
5 | B5 | 0.0842 KA relative to UGCAUGU
6 | B6 | 0.0673 KA relative to UGCAUGU
7 | B7 | 0.117 KA relative to UGCAUGU
8 | B8 | 0.139 KA relative to UGCAUGU
9 | B9 | 0.0527 KA relative to UGCAUGU
10 | B10 | 0.073 KA relative to UGCAUGU
11 | B11 | 0.102 KA relative to UGCAUGU
12 | B12 | 0.0935 KA relative to UGCAUGU
13 | B13 | 0.149 KA relative to UGCAUGU
14 | B14 | 0.104 KA relative to UGCAUGU
15 | B15 | 0.0987 KA relative to UGCAUGU
16 | B16 | 0.106 KA relative to UGCAUGU
17 | B17 | 0.739 KA relative to UGCAUGU
18 | B18 | 0.0934 KA relative to UGCAUGU
19 | B19 | 0.0705 KA relative to UGCAUGU
20 | B20 | 0.12 KA relative to UGCAUGU
